Paper PMC4747207
These are yes or no findings as the source states them, for the method shown. For some of these results: Binding seen in cells or lysates may run through a third protein. Some entries that bind do so weakly or less than the wild type. For some of these results: Sequences can lack the tags named with a protein. One block for each binder: values may come before it.

Sequences of proteins named here, by UniProt entry; tags and fusion partners are left off.
UniProt Q13616: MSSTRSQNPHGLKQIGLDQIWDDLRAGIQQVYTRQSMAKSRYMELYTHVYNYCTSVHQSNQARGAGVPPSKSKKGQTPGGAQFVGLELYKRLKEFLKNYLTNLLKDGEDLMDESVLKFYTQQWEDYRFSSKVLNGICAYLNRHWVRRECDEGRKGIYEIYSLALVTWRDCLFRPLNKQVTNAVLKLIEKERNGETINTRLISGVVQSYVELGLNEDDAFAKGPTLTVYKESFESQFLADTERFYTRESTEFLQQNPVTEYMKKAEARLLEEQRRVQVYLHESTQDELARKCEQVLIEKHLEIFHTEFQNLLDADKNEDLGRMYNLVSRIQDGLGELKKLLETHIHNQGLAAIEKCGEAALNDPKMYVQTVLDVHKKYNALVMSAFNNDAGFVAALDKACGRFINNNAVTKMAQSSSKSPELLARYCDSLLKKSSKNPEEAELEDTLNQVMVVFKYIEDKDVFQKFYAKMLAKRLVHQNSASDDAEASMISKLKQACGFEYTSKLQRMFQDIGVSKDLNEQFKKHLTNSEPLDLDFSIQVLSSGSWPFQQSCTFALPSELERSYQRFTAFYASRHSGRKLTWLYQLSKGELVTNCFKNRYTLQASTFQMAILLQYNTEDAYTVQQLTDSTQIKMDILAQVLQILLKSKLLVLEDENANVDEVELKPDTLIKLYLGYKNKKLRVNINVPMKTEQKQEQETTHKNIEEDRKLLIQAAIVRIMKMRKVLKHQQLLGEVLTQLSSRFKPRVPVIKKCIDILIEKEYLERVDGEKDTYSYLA
UniProt P63208: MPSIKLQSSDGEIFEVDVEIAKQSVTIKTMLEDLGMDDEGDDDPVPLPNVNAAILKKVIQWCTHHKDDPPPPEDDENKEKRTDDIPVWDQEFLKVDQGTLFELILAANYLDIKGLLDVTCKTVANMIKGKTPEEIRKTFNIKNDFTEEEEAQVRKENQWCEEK
UniProt Q13309: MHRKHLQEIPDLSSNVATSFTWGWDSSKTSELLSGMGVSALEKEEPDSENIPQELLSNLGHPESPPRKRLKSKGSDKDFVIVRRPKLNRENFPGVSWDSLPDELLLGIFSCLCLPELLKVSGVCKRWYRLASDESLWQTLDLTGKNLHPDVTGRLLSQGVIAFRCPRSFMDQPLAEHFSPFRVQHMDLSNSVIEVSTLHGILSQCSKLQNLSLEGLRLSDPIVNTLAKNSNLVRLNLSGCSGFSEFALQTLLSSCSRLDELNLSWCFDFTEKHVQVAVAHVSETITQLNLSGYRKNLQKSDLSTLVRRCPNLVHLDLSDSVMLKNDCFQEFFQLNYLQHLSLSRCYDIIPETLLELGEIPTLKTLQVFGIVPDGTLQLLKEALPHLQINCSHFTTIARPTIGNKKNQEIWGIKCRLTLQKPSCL
UniProt Q969H0: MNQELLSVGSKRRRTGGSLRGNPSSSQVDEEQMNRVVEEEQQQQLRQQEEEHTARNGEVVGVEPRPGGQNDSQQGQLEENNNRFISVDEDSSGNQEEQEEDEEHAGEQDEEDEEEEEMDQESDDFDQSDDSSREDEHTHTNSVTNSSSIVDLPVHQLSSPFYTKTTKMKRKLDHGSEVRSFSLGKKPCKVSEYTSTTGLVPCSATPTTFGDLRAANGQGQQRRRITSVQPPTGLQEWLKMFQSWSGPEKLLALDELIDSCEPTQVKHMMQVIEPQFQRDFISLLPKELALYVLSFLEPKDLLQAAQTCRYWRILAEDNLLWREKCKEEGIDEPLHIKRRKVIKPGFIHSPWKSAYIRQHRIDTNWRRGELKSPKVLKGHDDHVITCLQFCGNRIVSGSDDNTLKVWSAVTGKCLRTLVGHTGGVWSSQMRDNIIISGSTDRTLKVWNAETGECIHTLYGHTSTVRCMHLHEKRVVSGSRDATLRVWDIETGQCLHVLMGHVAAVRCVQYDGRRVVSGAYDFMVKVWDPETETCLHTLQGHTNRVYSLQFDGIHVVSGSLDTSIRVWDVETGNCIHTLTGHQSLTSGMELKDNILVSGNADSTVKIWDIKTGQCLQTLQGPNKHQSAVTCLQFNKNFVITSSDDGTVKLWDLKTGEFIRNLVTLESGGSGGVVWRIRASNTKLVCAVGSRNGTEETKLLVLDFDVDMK

Columns and labels:
FLAG-Cullin1 [1] = molecular target: FLAG-Cullin1 (UniProt Q13616); test: co-IP; HEK293T cells co-transfected with two tagged proteins; lysates in IP buffer, antibody (anti-FLAG, anti-HA or anti-myc) and protein A-sepharose beads, 4°C, 2–3 h; immunoblotting
[2] = molecular target: endogenous Cullin1 (SK-Mel-37 cells) (human (endogenous in SK-Mel-37)) (UniProt Q13616); test: co-IP; endogenous proteins, SK-Mel-37 cell lysates, immunoprecipitates with indicated antibodies, rabbit IgG as negative control; immunoblotting
FLAG-Skp1 (human) = FLAG-Skp1 (human) (UniProt P63208); test: co-IP; HEK293T cells co-transfected with two tagged proteins; lysates in IP buffer, antibody (anti-FLAG, anti-HA or anti-myc) and protein A-sepharose beads, 4°C, 2–3 h; immunoblotting
FLAG-Skp2 = FLAG-Skp2 (UniProt Q13309); test: as above
FLAG-Fbw7 = FLAG-Fbw7 (UniProt Q969H0); test: as above
[3] = molecular target: endogenous Cullin1 (A375 cells) (human (endogenous in A375)) (UniProt Q13616); test: proximity ligation; in situ PLA (Duolink) in fixed, permeabilised A375 cells; mouse anti-MAGE-C2 with rabbit anti-Cullin1, anti-Rbx1 or anti-Skp1; endogenous proteins
[4] = molecular target: endogenous Skp1 (A375 cells) (human (endogenous in A375)) (UniProt P63208); test: as above
GST-Skp1 (human) = GST-Skp1 (human) (UniProt P63208); test: pull-down; about 10 μg glutathione Sepharose-linked GST-fusion protein incubated with purified protein in 200 μl GST binding buffer (PBS, 0.1% NP-40, 5 mM dithiothreitol, protease inhibitors), overnight, 4°C; Western blotting; both purified
myc-tagged Cullin1 FL = myc-tagged Cullin1 FL (UniProt Q13616); test: co-IP; HEK293T cells co-transfected with two tagged proteins; lysates in IP buffer, antibody (anti-FLAG, anti-HA or anti-myc) and protein A-sepharose beads, 4°C, 2–3 h; immunoblotting
FLAG-Cullin1 [5] = molecular target: FLAG-Cullin1 (UniProt Q13616); test: co-IP; HEK293T cells transfected with FLAG-Cullin1, HA-Skp1 and GFP-MAGE-C2 or GFP; immunoprecipitated with anti-FLAG antibody; immunoblotting

B1: MAGE-C2 Δ245–373 (domain or fragment, UniProt Q9UBF1 1-244)
chain: MPPVPGVPFRNVDNDSPTSVELEDWVDAQHPTDEEEEEASSASSTLYLVFSPSSFSTSSSLILGGPEEEEVPSGVIPNLTESIPSSPPQGPPQGPSQSPLSSCCSSFSWSSFSEESSSQKGEDTGTCQGLPDSESSFTYTLDEKVAELVEFLLLKYEAEEPVTEAEMLMIVIKYKDYFPVILKRAREFMELLFGLALIEVGPDHFCVFANTVGLTDEGSDDEGMPENSLLIIILSVIFIKGNCA
binding (FLAG-Cullin1 [1]): binds

B3: MAGE-C2 Δ148–314 (protein, UniProt Q9UBF1)
chain: MPPVPGVPFRNVDNDSPTSVELEDWVDAQHPTDEEEEEASSASSTLYLVFSPSSFSTSSSLILGGPEEEEVPSGVIPNLTESIPSSPPQGPPQGPSQSPLSSCCSSFSWSSFSEESSSQKGEDTGTCQGLPDSESSFTYTLDEKVAELEFLAKLNNTVPSSFPSWYKDALKDVEERVQATIDTADDATVMASESLSVMSSNVSFSE
binding (FLAG-Cullin1 [1]): binds

B6: endogenous MAGE-C2 (A375 cells) (protein, UniProt Q9UBF1 1-373)
chain: MPPVPGVPFRNVDNDSPTSVELEDWVDAQHPTDEEEEEASSASSTLYLVFSPSSFSTSSSLILGGPEEEEVPSGVIPNLTESIPSSPPQGPPQGPSQSPLSSCCSSFSWSSFSEESSSQKGEDTGTCQGLPDSESSFTYTLDEKVAELVEFLLLKYEAEEPVTEAEMLMIVIKYKDYFPVILKRAREFMELLFGLALIEVGPDHFCVFANTVGLTDEGSDDEGMPENSLLIIILSVIFIKGNCASEEVIWEVLNAVGVYAGREHFVYGEPRELLTKVWVQGHYLEYREVPHSSPPYYEFLWGPRAHSESIKKKVLEFLAKLNNTVPSSFPSWYKDALKDVEERVQATIDTADDATVMASESLSVMSSNVSFSE
binding [3]: binds | binding [4]: no binding

B7: Recombinant human MAGE-C2 protein (protein, UniProt Q9UBF1 1-373)
chain: MPPVPGVPFRNVDNDSPTSVELEDWVDAQHPTDEEEEEASSASSTLYLVFSPSSFSTSSSLILGGPEEEEVPSGVIPNLTESIPSSPPQGPPQGPSQSPLSSCCSSFSWSSFSEESSSQKGEDTGTCQGLPDSESSFTYTLDEKVAELVEFLLLKYEAEEPVTEAEMLMIVIKYKDYFPVILKRAREFMELLFGLALIEVGPDHFCVFANTVGLTDEGSDDEGMPENSLLIIILSVIFIKGNCASEEVIWEVLNAVGVYAGREHFVYGEPRELLTKVWVQGHYLEYREVPHSSPPYYEFLWGPRAHSESIKKKVLEFLAKLNNTVPSSFPSWYKDALKDVEERVQATIDTADDATVMASESLSVMSSNVSFSE
binding (GST-Skp1 (human)): no binding

B8: FLAG-MAGE-C2 (protein, UniProt Q9UBF1 1-373)
chain: MPPVPGVPFRNVDNDSPTSVELEDWVDAQHPTDEEEEEASSASSTLYLVFSPSSFSTSSSLILGGPEEEEVPSGVIPNLTESIPSSPPQGPPQGPSQSPLSSCCSSFSWSSFSEESSSQKGEDTGTCQGLPDSESSFTYTLDEKVAELVEFLLLKYEAEEPVTEAEMLMIVIKYKDYFPVILKRAREFMELLFGLALIEVGPDHFCVFANTVGLTDEGSDDEGMPENSLLIIILSVIFIKGNCASEEVIWEVLNAVGVYAGREHFVYGEPRELLTKVWVQGHYLEYREVPHSSPPYYEFLWGPRAHSESIKKKVLEFLAKLNNTVPSSFPSWYKDALKDVEERVQATIDTADDATVMASESLSVMSSNVSFSE
binding (myc-tagged Cullin1 FL): binds

Further lines, results first:

binding (FLAG-Cullin1 [1]): binds
B2: MAGE-C2 Δ31–147 (protein, UniProt Q9UBF1)
chain: MPPVPGVPFRNVDNDSPTSVELEDWVDAQHLVEFLLLKYEAEEPVTEAEMLMIVIKYKDYFPVILKRAREFMELLFGLALIEVGPDHFCVFANTVGLTDEGSDDEGMPENSLLIIILSVIFIKGNCASEEVIWEVLNAVGVYAGREHFVYGEPRELLTKVWVQGHYLEYREVPHSSPPYYEFLWGPRAHSESIKKKVLEFLAKLNNTVPSSFPSWYKDALKDVEERVQATIDTADDATVMASESLSVMSSNVSFSE

binding [2]: binds
B4: endogenous MAGE-C2 (SK-Mel-37 cells) (protein, UniProt Q9UBF1 1-373)
chain: MPPVPGVPFRNVDNDSPTSVELEDWVDAQHPTDEEEEEASSASSTLYLVFSPSSFSTSSSLILGGPEEEEVPSGVIPNLTESIPSSPPQGPPQGPSQSPLSSCCSSFSWSSFSEESSSQKGEDTGTCQGLPDSESSFTYTLDEKVAELVEFLLLKYEAEEPVTEAEMLMIVIKYKDYFPVILKRAREFMELLFGLALIEVGPDHFCVFANTVGLTDEGSDDEGMPENSLLIIILSVIFIKGNCASEEVIWEVLNAVGVYAGREHFVYGEPRELLTKVWVQGHYLEYREVPHSSPPYYEFLWGPRAHSESIKKKVLEFLAKLNNTVPSSFPSWYKDALKDVEERVQATIDTADDATVMASESLSVMSSNVSFSE

binding (FLAG-Skp1 (human)): no binding | binding (FLAG-Skp2): no binding | binding (FLAG-Cullin1 [1]): binds | binding (FLAG-Fbw7): binds
B5: HA-MAGE-C2 (protein, UniProt Q9UBF1 1-373)
chain: MPPVPGVPFRNVDNDSPTSVELEDWVDAQHPTDEEEEEASSASSTLYLVFSPSSFSTSSSLILGGPEEEEVPSGVIPNLTESIPSSPPQGPPQGPSQSPLSSCCSSFSWSSFSEESSSQKGEDTGTCQGLPDSESSFTYTLDEKVAELVEFLLLKYEAEEPVTEAEMLMIVIKYKDYFPVILKRAREFMELLFGLALIEVGPDHFCVFANTVGLTDEGSDDEGMPENSLLIIILSVIFIKGNCASEEVIWEVLNAVGVYAGREHFVYGEPRELLTKVWVQGHYLEYREVPHSSPPYYEFLWGPRAHSESIKKKVLEFLAKLNNTVPSSFPSWYKDALKDVEERVQATIDTADDATVMASESLSVMSSNVSFSE

binding (FLAG-Cullin1 [5]): binds
B9: GFP-MAGE-C2 (protein, UniProt Q9UBF1 1-373)
chain: MPPVPGVPFRNVDNDSPTSVELEDWVDAQHPTDEEEEEASSASSTLYLVFSPSSFSTSSSLILGGPEEEEVPSGVIPNLTESIPSSPPQGPPQGPSQSPLSSCCSSFSWSSFSEESSSQKGEDTGTCQGLPDSESSFTYTLDEKVAELVEFLLLKYEAEEPVTEAEMLMIVIKYKDYFPVILKRAREFMELLFGLALIEVGPDHFCVFANTVGLTDEGSDDEGMPENSLLIIILSVIFIKGNCASEEVIWEVLNAVGVYAGREHFVYGEPRELLTKVWVQGHYLEYREVPHSSPPYYEFLWGPRAHSESIKKKVLEFLAKLNNTVPSSFPSWYKDALKDVEERVQATIDTADDATVMASESLSVMSSNVSFSE
